PubChem BioAssay AID2147 (National Center for Advancing Translational Sciences (NCATS), 2009)
About 3,600 (1.6%) of roughly 230,000 compounds were called active. Inconclusive means that the source gave no clear call. Such entries were picked first, then a sample of the others. The call rests on the fitted dose curve; in most records, active means well fitted inhibition curve with a large enough effect (not every such curve was filed as active); inconclusive means small, poorly fitted or top-dose-only effect, or another doubt; inactive means no such curve, though single readings can be large or run the other way. Potencies beside an inconclusive call are fits to weak or partial responses and may not hold up.

Each compound was assayed against Lysine-specific demethylase 4E (Homo sapiens) (UniProt B2RXH2) (assay: qHTS Assay for Inhibitors of Human Jumonji Domain Containing 2E (JMJD2E)). Conditions: JMJD2E catalytic domain, FDH-coupled NADH fluorescence (FDH is formaldehyde dehydrogenase); series mostly up to 57.1 µM.
Further: nearly all actives have a fitted effect of over 50% in size.
Potency means the concentration at half of the fitted maximal effect; tags describe the fitted curve by direction and shape.

Chain of UniProt B2RXH2 (B2RXH2 whole entry, looked up, the tested form may be a part): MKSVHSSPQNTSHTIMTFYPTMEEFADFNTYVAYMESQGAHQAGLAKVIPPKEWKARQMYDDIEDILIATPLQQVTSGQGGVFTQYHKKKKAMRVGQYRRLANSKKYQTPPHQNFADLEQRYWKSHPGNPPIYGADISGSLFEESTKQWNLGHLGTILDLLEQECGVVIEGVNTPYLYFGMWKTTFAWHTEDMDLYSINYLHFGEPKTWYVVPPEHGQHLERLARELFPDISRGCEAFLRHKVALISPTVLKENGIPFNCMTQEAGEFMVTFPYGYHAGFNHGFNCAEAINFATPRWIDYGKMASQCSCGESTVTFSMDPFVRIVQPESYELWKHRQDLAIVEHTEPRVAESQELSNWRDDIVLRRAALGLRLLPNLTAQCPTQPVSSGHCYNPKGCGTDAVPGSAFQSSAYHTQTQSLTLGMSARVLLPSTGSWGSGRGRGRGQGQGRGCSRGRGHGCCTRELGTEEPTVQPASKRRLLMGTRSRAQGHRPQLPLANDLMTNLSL

| Structure (SMILES) | Potency |
| --- | --- |
| O=C(Nc1ccc(OCC(=O)N2CCC(Cc3ccccc3)CC2)cc1)c1ccco1 | inactive |
| NS(=O)(=O)c1ccc(CNC(=O)c2cc(-c3cccs3)nc3ccccc23)cc1 | inconclusive: 28.2 µM [inhibitor, partial curve] |
| C#CC[N+](C)(C)CCCCCCCCCC | inactive |
| CSc1nc(C)cc(Oc2ccc(=O)[nH]n2)n1 | inconclusive: 7.08 µM [inhibitor, single point] |
| CCCNC(=O)CSCc1nc(-c2ccc(SC)cc2)oc1C | inconclusive: 35.5 µM [inhibitor, single point] |
| CN(CC(=O)N1CC=C(c2ccccc2)CC1)S(=O)(=O)c1ccc2c(c1)c(=O)n(C)c(=O)n2C | inconclusive: 39.8 µM [inhibitor, single point] |
| COc1ccc2[nH]cc(CCNc3ncnc4ccc(-c5ccc(C(=O)N(C)C)cc5)cc34)c2c1 | inconclusive: 39.8 µM [inhibitor, single point] |
| COc1ccc2cc(CN(Cc3ccco3)C(=S)NCC3CCCO3)c(=O)[nH]c2c1 (stereo unspecified) | inconclusive: 25.1 µM [inhibitor, single point] |
| CC(C)CN1CCNC(=O)C1CC(=O)N(C)CC1CCOCC1 (stereo unspecified) | inconclusive: 20 µM [inhibitor, partial curve] |
| c1ccc2[nH]c(-c3cscn3)nc2c1 | inconclusive: 39.8 µM [inhibitor, single point] |
| Cc1ccc(S(=O)(=O)NCC(=O)N(CCc2ccccc2)CC(=O)NCc2ccco2)cc1 | inactive |
| N#Cc1cccc(-c2nc(Nc3ccccc3)c3ccccc3n2)c1 | inconclusive: 28.2 µM [inhibitor, single point] |
| CN(C)c1cccc(C(=O)NCC2CCCO2)c1 (stereo unspecified) | inconclusive: 31.6 µM [inhibitor, single point] |
| CC(C(=O)Nc1ccc2c(c1)OCO2)N1CCN(C)CC1 (stereo unspecified) | inconclusive: 25.1 µM [inhibitor, single point] |
| O=C(COc1ccc(/C=C\[N+](=O)[O-])cc1)N1CCOCC1 | inactive |
| COc1cccc(=O)c2c(C)n(C)c(C)c12 | inactive |
| CCCN1CNc2c(c(=O)[nH]c(=S)n2CCc2ccccc2)C1 | inconclusive: 25.1 µM [inhibitor, single point] |
| Nn1cnnc1SC1CCCCC1NS(=O)(=O)c1ccccc1 (stereo unspecified) | inactive |
| O=C(Nc1nc2nc(-c3ccccc3)cc(-c3ccccc3)n2n1)c1ccco1 | inconclusive: 31.6 µM [inhibitor, partial curve] |
| Cc1ccc(CCNC(=O)c2coc3nc4ccccc4nc23)cc1 | inconclusive: 22.4 µM [inhibitor, partial curve] |
| Cc1ccc(OC(=S)Nc2ccc(O)cc2)cc1 | inconclusive: 2 µM [inhibitor, full curve] |
| Cc1ccc(NC(=O)c2cc(-c3ccc(C)o3)nc3ccccc23)nc1 | inconclusive: 10 µM [inhibitor, partial curve] |
| CCOc1ccc(NC(=O)CN2CCC(n3cnc4cc(F)ccc43)CC2)cc1 | inactive |

| Structure (SMILES) | Potency |
| --- | --- |
| N#Cc1cc2c(=O)n3ccccc3nc2n(CCCn2ccnc2)c1=N | inconclusive: 31.6 µM [inhibitor, partial curve] |
| CCCCc1c(C)c2ccc(OCC(C)=O)cc2oc1=O | inconclusive: 31.6 µM [inhibitor, partial curve] |
| COc1ccc2oc(=O)c(C(=O)NCC3CCCO3)cc2c1 (stereo unspecified) | inconclusive: 25.1 µM [inhibitor, partial curve] |
| CC1(C)Cc2ccccc2C2CC(O)C(=O)N21 (stereo unspecified) | inconclusive: 39.8 µM [inhibitor, single point] |
| CCCC(=O)Nc1c(O)c2ccccc2[nH]c1=O | inconclusive: 31.6 µM [inhibitor, partial curve] |
| COc1cc(NC(=S)NN2CCN(C)CC2)cc(OC)c1OC | inconclusive: 0.0063 µM [inhibitor, full curve, poor fit] |
| CN(C)c1cc(-c2ccc(Cl)cc2Cl)oc(=O)c1Cl | inactive |
| CCOC(=O)CSC1=C(C#N)C(=O)NC(c2ccc(OC)c(OC)c2)S1 (stereo unspecified) | inconclusive: 39.8 µM [inhibitor, single point] |
| O=C(/C=C/c1ccc2c(c1)OCO2)N1CCN(c2n[nH]c(=O)[nH]c2=O)CC1 | inconclusive: 28.2 µM [inhibitor, partial curve] |
| O=C(c1ccncc1)c1nccn1-c1ccccn1 | inconclusive: 28.2 µM [inhibitor, single point] |
| CC(=O)C(C)=O | inactive |
| O=C(Nc1ccc2c(c1)C(=O)N(C1CCCCC1)C2=O)C1CCCO1 (stereo unspecified) | inconclusive: 28.2 µM [inhibitor, partial curve] |
| COc1ccc(C2=C/C(=C\c3ccc(OC(C)=O)cc3)C(=O)O2)cc1 | inactive |
| CC(C)(C)c1ccc(/C=C/C(=O)Nc2ccncc2)cc1 | inconclusive: 39.8 µM [inhibitor, single point] |
| Cc1cc(C)c(C#N)c(N2CCCC2)n1 | inconclusive: 25.1 µM [inhibitor, partial curve] |
| Cc1ccc(C(=O)Nc2ncc(Cc3ccc(F)cc3)s2)o1 | inconclusive: 1.78 µM [inhibitor, partial curve] |
| O=S(=O)(c1ccc(F)cc1)N1CC=C(c2ccccc2)CC1 | inconclusive: 25.1 µM [inhibitor, single point] |
| CC(=O)Nc1cc2cc(NS(=O)(=O)c3ccc(C)cc3)ccc2oc1=O | inconclusive: 35.5 µM [inhibitor, single point] |
| Fc1ccc(-n2c(Cc3ccccc3)nnc2SCc2nc(-c3cccs3)no2)cc1 | inactive |
| CCOc1ccccc1-c1nc(-c2ccc(C)nc2OC)no1 | inconclusive: 31.6 µM [inhibitor, single point] |
| O=C(/C=C/c1cccc(Cl)c1)N1CCC(Cc2ccccc2)CC1 | inactive |
| COc1ccc2c(c1)n([O-])c1c([n+]2=O)CCC1 | inconclusive: 28.2 µM [inhibitor, partial curve] |
| COc1cc(-c2nnc(SCc3cc(=O)oc4cc(C)ccc34)o2)cc(OC)c1OC | inactive |
